Data as given in US7973219B2, “Method for producing transgenic plants resistant to weed control compounds which disrupt the porphyrin pathways of plants” (Sumitomo Chemical Company, Limited, priority 1998, dated 2011).
The name of at least one read-out is uncertain.

Legend:
[1] = system: E. coli BT3/pACYCSP+pTVBCH strain; experiment: Growth of E. coli BT3/pACYCSP+pTVBCH (bchH) with herbicidal compound; type: cell-based, Escherichia coli; details: 18 hours culture, Table 3
Text: (§1) According to the description of Gibson, L. C. D. et al., Proc. Natl. Acad. Sci. USA, 92; p 1941 (1995), the DNA fragment containing bchH gene prepared in Example 1 was digested with the restriction enzymes NdeI and BglII. The resultant DNA fragment was inserted between NdeI restriction site and BamHI restriction site of expression vector pET11a (manufactured by Stratagene) to obtain plasmid pETBCH (FIG. 1). This plasmid pETBCH was introduced into E. coli BL21(DE3) strain competent cells (manufactured by Stratagene) according to the manual attached to the competent cells to obtain E. coli BL21(DE3)/pETBCH strain. The strain was inoculated into 1.5 ml LB liquid culture medium (1% tryptone, 0.5% yeast extract, 0.5% NaCl) containing 100 μg/ml ampicillin in a tube (14×10 mm), and the tube was covered with aluminum foil (hereinafter referred to as dark conditions), cultured with shaking at 37° C. under light of fluorescent lamp (about 8000 lux). When the absorbance at 600 nm of the liquid culture medium became about 0.6, isopropyl β-D-thiogalactopyranoside (IPTG) was added to the liquid culture medium so that the final concentration was 0.4 mM, and the culture was continued for about additional 20 hours. […] In contrast to this, when E. coli BL21(DE3)/pETBCH strain was cultured according to the same manner (with IPTG) except that the tube was not covered with aluminum foil (hereinafter referred to as light conditions), E. coli grew and turned red as above.
Plasmid pTVBCH (FIG. 3) was constructed by amplification of the DNA fragment containing bchH gene derived from photosynthetic bacterium Rhodobacter sphaeroides using the oligonucleotide composed of the nucleotide sequence of SEQ ID NO: 1 and the oligonucleotide composed of the nucleotide sequence of SEQ ID NO: 2 according to the same manner as in Example 1, digestion of the resultant DNA fragment with the restriction enzymes NcoI and BglII and introducing the digested DNA fragment between NcoI restriction site and BamHI restriction site of plasmid pTV118N (manufactured by Takara Shuzo Co., Ltd.).
(§2) Plasmids pTVBCH and pTV118N respectively were introduced into E. coli BT3/pACYCSP strain prepared in Example 3 according to the method described in Hanahan, D. J., Mol. Biol., 166; p 557 (1983). The resultant E. coli were cultured in YPT medium containing 100 μg/ml ampicillin, 15 μg/ml chloramphenicol and 10 μg/ml kanamycin to obtain E. coli BT3/pACYCSP+pTVBCH strain bearing plasmids pACYCSP and pTVBCH, and E. coli BT3/pACYCSP+pTV118N strain bearing plasmids pACYCSP and pTV118N.
(§3) These strains were inoculated into YPT medium containing 10 or 1 ppm of the PPO inhibitory-type herbicidal compound represented by the above Structure 8, 100 μg/ml ampicillin, 15 μg/ml chloramphenicol, 10 μg/ml kanamycin, 10 μg/ml hemin and 50 μg/ml aminolevulinic acid, cultured under dark conditions or light conditions according to the same manner as in Example 2. Then, 18 hours after initiation of culture, the absorbance of the liquid culture medium was measured at 600 nm. By taking the absorbance of the medium without the herbicidal compound as 1, the relative value of the absorbance of the medium containing the herbicidal compound was calculated.
(§4) Further, these strains were inoculated into YPT medium containing PPO inhibitory-type herbicidal compounds represented by the above Structures 1, 14, 15, 18-22, 29, 32, 33, 34 and 36, respectively, 100 μg/ml ampicillin, 15 μg/ml chloramphenicol, 10 μg/ml kanamycin, 10 μg/ml hemin and 50 μg/ml aminolevulinic acid, cultured under dark conditions or light conditions similar to the Example 2. Then, 18 hours after initiation of culture, the absorbance of liquid culture medium was measured at 600 nm. By taking the absorbance of the medium without the herbicidal compound as 1, the relative value of the absorbance of the medium containing the herbicidal compound was calculated.

[2] = system: E. coli BT3/pACYCSP+pTV118N strain; experiment: Growth of E. coli BT3/pACYCSP+pTV118N (vector control) with herbicidal compound; type: cell-based, Escherichia coli; details: 18 hours culture, Table 3
Text: as §1, §2, §3, §4
Plasmids pTVGMP and pTV118N prepared in Example 11 were introduced into E. coli BT3/pACYCSP strain prepared in Example 3 respectively according to the method described in Flanahan, D. J., Mol. Biol., 166; p 557 (1983). E. coli BT3/pACYCSP+pTVGMP strain bearing plasmids pACYCSP and pTVGMP, and E. coli BT3/pACYCSP+pTV118N strain bearing plasmids pACYCSP and pTV118N were obtained by culturing the above strains in YPT medium containing 100 μg/ml ampicillin, 15 μg/ml chloramphenicol and 10 μg/ml kanamycin. […]

[3] = in the dark, test concentration 5.0 (unit not given)
[4] = in the light, test concentration 5.0 (unit not given)
[5] = in the dark, test concentration 10 (unit not given)
[6] = in the light, test concentration 10 (unit not given)
[7] = in the dark, test concentration 0.5 (unit not given)
[8] = in the light, test concentration 0.5 (unit not given)
[9] = in the dark, test concentration 2.0 (unit not given)
[10] = in the light, test concentration 2.0 (unit not given)
[11] = in the dark, test concentration 1.0 (unit not given)
[12] = in the light, test concentration 1.0 (unit not given)

**Q.** With `O=C([O-])c1cc(Oc2ccc(C(F)(F)F)cc2Cl)ccc1[N+](=O)[O-].[Na+]` [Structure 1] as the compound, how does the Relative absorbance [1, 3] read?
**A.** 0.88

**Q.** And the Relative absorbance [1, 4]?
**A.** 0.88

**Q.** And the Relative absorbance [2, 3]?
**A.** 0.87

**Q.** What about the Relative absorbance [2, 4] of the same compound?
**A.** 0.31

**Q.** With `CCOC(=O)C(Cl)Cc1cc(-n2nc(C)n(C(F)F)c2=O)c(F)cc1Cl` (stereo not shown) [Structure 14] as the compound, how does the Relative absorbance [1, 5] read?
**A.** 0.93

**Q.** And the Relative absorbance [1, 6]?
**A.** 0.47

**Q.** What about the Relative absorbance [2, 5] of the same compound?
**A.** 0.81

**Q.** And the Relative absorbance [2, 6]?
**A.** 0.12

**Q.** With `C=CCOC(=O)C(C)(C)OC(=O)c1cc(-n2c(=O)cc(C(F)(F)F)n(C)c2=O)ccc1Cl` [Structure 15] as the compound, how does the Relative absorbance [1, 7] read?
**A.** 0.94

**Q.** What about the Relative absorbance [1, 8] of the same compound?
**A.** 0.94

**Q.** What about the Relative absorbance [2, 7] of the same compound?
**A.** 0.82

**Q.** And the Relative absorbance [2, 8]?
**A.** 0.38

**Q.** `CC(C)OC(=O)c1cc(-n2c(=O)cc(C(F)(F)F)n(C)c2=O)ccc1Cl` [Structure 18] was tested. Which Relative absorbance [1, 9] did it give?
**A.** 1.0

**Q.** And the Relative absorbance [1, 10]?
**A.** 0.68

**Q.** What about the Relative absorbance [2, 9] of the same compound?
**A.** 0.91

**Q.** And the Relative absorbance [2, 10]?
**A.** 0.33

**Q.** For `CC(C)OC(=O)c1cc(-c2nn(C)c(C(F)(F)F)c2Br)c(F)cc1Cl` [Structure 19], which Relative absorbance [1, 3] is on record?
**A.** 0.89

**Q.** What about the Relative absorbance [1, 4] of the same compound?
**A.** 0.78

**Q.** And the Relative absorbance [2, 3]?
**A.** 0.71

**Q.** And the Relative absorbance [2, 4]?
**A.** 0.40

**Q.** Which results are given for `C#CCN1C(=O)COc2cc(F)c(/N=c3\snc4n3CC(C)(C)C4)cc21` [Structure 20]?
**A.** Relative absorbance [1, 3]: 0.88; Relative absorbance [1, 4]: 0.57; Relative absorbance [2, 3]: 0.75; Relative absorbance [2, 4]: 0.11

**Q.** For `CC(C)=C1OC(=O)N(c2cc(OC3CCCC3)c(Cl)cc2F)C1=O` [Structure 21], which Relative absorbance [1, 5] is on record?
**A.** 0.91

**Q.** And the Relative absorbance [1, 6]?
**A.** 0.88

**Q.** And the Relative absorbance [2, 5]?
**A.** 0.85

**Q.** What about the Relative absorbance [2, 6] of the same compound?
**A.** 0.25

**Q.** Which results are given for `CCOC(=O)/C(Cl)=C\c1cc(N2C(=O)C3=C(CCCC3)C2=O)ccc1Cl` [Structure 22]?
**A.** Relative absorbance [1, 5]: 0.93; Relative absorbance [1, 6]: 0.55; Relative absorbance [2, 5]: 0.94; Relative absorbance [2, 6]: 0.29

**Q.** Which Relative absorbance [1, 7] does the source give for `C#CCN1C(=O)COc2cc(F)c(-c3ncc(C(F)(F)F)n(C)c3=O)cc21` [Structure 29] here?
**A.** 0.90

**Q.** And the Relative absorbance [1, 8]?
**A.** 0.64

**Q.** What about the Relative absorbance [2, 7] of the same compound?
**A.** 0.77

**Q.** What about the Relative absorbance [2, 8] of the same compound?
**A.** 0.22

**Q.** Which results are given for `CC(C)Oc1cc(N2C(=O)C3CCCCN3C2=O)c(F)cc1Cl` (stereo not shown) [Structure 32]?
**A.** Relative absorbance [1, 9]: 0.94; Relative absorbance [1, 10]: 0.70; Relative absorbance [2, 9]: 0.87; Relative absorbance [2, 10]: 0.37

**Q.** With `C#CCOc1cc(-n2c(=O)n3n(c2=O)CCCC3)c(F)cc1Cl` [Structure 33] as the compound, how does the Relative absorbance [1, 9] read?
**A.** 0.92

**Q.** And the Relative absorbance [1, 10]?
**A.** 0.81

**Q.** And the Relative absorbance [2, 9]?
**A.** 0.91

**Q.** What about the Relative absorbance [2, 10] of the same compound?
**A.** 0.41

**Q.** `C#CCOc1cc(-n2nc3c(c2Cl)CCCC3)c(F)cc1Cl` [Structure 34] was tested. Which Relative absorbance [1, 11] did it give?
**A.** 0.94

**Q.** What about the Relative absorbance [1, 12] of the same compound?
**A.** 0.41

**Q.** What about the Relative absorbance [2, 11] of the same compound?
**A.** 0.86

**Q.** What about the Relative absorbance [2, 12] of the same compound?
**A.** 0.19

**Q.** With `C#CCN1C(=O)COc2cc(F)c(-n3cnc(C(F)(F)F)c(C)c3=O)cc21` [Structure 36] as the compound, how does the Relative absorbance [1, 7] read?
**A.** 0.95

**Q.** And the Relative absorbance [1, 8]?
**A.** 0.55

**Q.** And the Relative absorbance [2, 7]?
**A.** 0.96

**Q.** What about the Relative absorbance [2, 8] of the same compound?
**A.** 0.28
